# Some of the results follow.
# B1: OGAA (protein)
# chain: MVQKESQATLEERESELSSNPAASAGASLEPPAAPAPGEDNPAGAGGAAVAGAAGGARRFLCGVVEGFYGRPWVMEQRKELFRRLQKWELNTYLYAPKDDYKHRMFWREMYSVEEAEQLMTLISAAREYEIEFIYAISPGLDITFSNPKEVSTLKRKLDQVSQFGCRSFALLFADIDHNMCAADKEVFSSFAHAQVSITNEIYQYLGEPETFLFCPTEYCGTFCYPNVSQSPYLRTVGEKLLPGIEVLWTGPKVVSKEIPVESIEEVSKIIKRAPVIWDNIHANDYDQKRLFLGPYKGRSTELIPRLKGVLTNPNCEFEANYVAIHTLATWYKSNMNGVRKDVVMTDSEDSTVSIQIKLENEGSDEDIETDVLYSPQMALKLALTEWLQEFGVPHQY
# Experiments:
# Assay in all cases: glycan array binding signal (z-score within array); higher = stronger binding
# Conditions in all cases: glycan notation: IUPAC condensed, linker removed
# [1] = molecular target: Kdn(a2-3)Gal(b1-4)Glc
# Procedure, shortened: (§1)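 Columns mapping to the same glycan were averaged after glycan names were converted to IUPAC-condensed notation. The data come from 3228 arrays in the Consortium for Functional Glycomics database, limited to those with an available protein sequence. Binding is reported as a within-array Z-score averaged across arrays of one protein sequence and across linkers.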
# [2] = molecular target: Kdn(a2-3)Gal(b1-4)GlcNAc
# Procedure, shortened: as §1
# [3] = molecular target: Kdn(a2-3)Gal(b1-4)[Fuc(a1-3)]GlcNAc
# Procedure, shortened: as §1
# [4] = molecular target: Kdn(a2-6)Gal(b1-4)GlcNAc
# Procedure, shortened: as §1
# [5] = molecular target: Man(a1-2)Man(a1-2)Man(a1-3)Man
# Procedure, shortened: as §1
# [6] = molecular target: Man(a1-2)Man(a1-2)Man(a1-6)[Man(a1-3)]Man
# Procedure, shortened: as §1
# [7] = molecular target: Man(a1-2)Man(a1-3)Man
# Procedure, shortened: as §1
# [8] = molecular target: Man(a1-2)Man(a1-3)[Man(a1-2)Man(a1-6)]Man
# Procedure, shortened: as §1
# [9] = molecular target: Man(a1-2)Man(a1-3)[Man(a1-2)Man(a1-6)]Man(a1-6)[Man(a1-2)Man(a1-2)Man(a1-3)]Man
# Procedure, shortened: as §1
# [10] = molecular target: Man(a1-2)Man(a1-3)[Man(a1-2)Man(a1-6)]Man(a1-6)[Man(a1-2)Man(a1-2)Man(a1-3)]Man(b1-4)GlcNAc(b1-4)GlcNAc
# Procedure, shortened: as §1
# [11] = molecular target: Man(a1-2)Man(a1-3)[Man(a1-6)]Man(a1-6)[Man(a1-2)Man(a1-3)]Man(b1-4)GlcNAc(b1-4)GlcNAc
# Procedure, shortened: as §1
# [12] = molecular target: Man(a1-2)Man(a1-6)[Man(a1-3)]Man(a1-6)[Man(a1-2)Man(a1-2)Man(a1-3)]Man
# Procedure, shortened: as §1
# [13] = molecular target: Man(a1-2)Man(a1-6)[Man(a1-3)]Man(a1-6)[Man(a1-2)Man(a1-2)Man(a1-3)]Man(b1-4)GlcNAc(b1-4)GlcNAc
# Procedure, shortened: as §1
# [14] = molecular target: Man(a1-3)[Man(a1-6)]Man
# Procedure, shortened: as §1
# [15] = molecular target: Man(a1-3)[Man(a1-6)]Man(a1-6)[Man(a1-2)Man(a1-3)]Man(b1-4)GlcNAc(b1-4)GlcNAc
# Procedure, shortened: as §1
# [16] = molecular target: Man(a1-3)[Man(a1-6)]Man(a1-6)[Man(a1-3)]Man
# Procedure, shortened: as §1
# [17] = molecular target: Man(a1-3)[Man(a1-6)]Man(a1-6)[Man(a1-3)]Man(b1-4)GlcNAc(b1-4)GlcNAc
# Procedure, shortened: as §1
# [18] = molecular target: Man(a1-3)[Man(a1-6)]Man(b1-4)GlcNAc(b1-4)GlcNAc
# Procedure, shortened: as §1
# [19] = molecular target: Man(a1-3)[Man(a1-6)]Man(b1-4)GlcNAc(b1-4)[Fuc(a1-6)]GlcNAc
# Procedure, shortened: as §1
# [20] = molecular target: Man(a1-6)Man
# Procedure, shortened: as §1
# [21] = molecular target: Man(b1-4)GlcNAc
# Procedure, shortened: as §1
# [22] = molecular target: MurNAc(b1-4)GlcNAc
# Procedure, shortened: as §1
# [23] = molecular target: Neu5Ac(a2-3)Gal
# Procedure, shortened: as §1
# [24] = molecular target: Neu5Ac(a2-3)Gal(b1-3)GalNAc
# Procedure, shortened: as §1
# [25] = molecular target: Neu5Ac(a2-3)Gal(b1-3)GalNAc(b1-3)Gal(a1-4)Gal(b1-4)Glc
# Procedure, shortened: as §1
# [26] = molecular target: Neu5Ac(a2-3)Gal(b1-3)GalNAc(b1-4)Gal(b1-4)Glc
# Procedure, shortened: as §1
# [27] = molecular target: Neu5Ac(a2-3)Gal(b1-3)GalNAc(b1-4)[Neu5Ac(a2-3)]Gal(b1-4)Glc
# Procedure, shortened: as §1
# [28] = molecular target: Neu5Ac(a2-3)Gal(b1-3)GalNAc(b1-4)[Neu5Ac(a2-8)Neu5Ac(a2-3)]Gal(b1-4)Glc
# Procedure, shortened: as §1
# [29] = molecular target: Neu5Ac(a2-3)Gal(b1-3)GalNAc6S
# Procedure, shortened: as §1
# [30] = molecular target: Neu5Ac(a2-3)Gal(b1-3)GlcNAc
# Procedure, shortened: as §1
# [31] = molecular target: Neu5Ac(a2-3)Gal(b1-3)GlcNAc(b1-2)Man
# Procedure, shortened: as §1
# [32] = molecular target: Neu5Ac(a2-3)Gal(b1-3)GlcNAc(b1-2)Man(a1-3)[GlcNAc(b1-4)][Neu5Ac(a2-3)Gal(b1-3)GlcNAc(b1-2)Man(a1-6)]Man(b1-4)GlcNAc(b1-4)GlcNAc
# Procedure, shortened: as §1
# [33] = molecular target: Neu5Ac(a2-3)Gal(b1-3)GlcNAc(b1-2)Man(a1-3)[Neu5Ac(a2-3)Gal(b1-3)GlcNAc(b1-2)Man(a1-6)]Man(b1-4)GlcNAc(b1-4)GlcNAc
# Procedure, shortened: as §1
# [34] = molecular target: Neu5Ac(a2-3)Gal(b1-3)GlcNAc(b1-2)[Neu5Ac(a2-3)Gal(b1-3)GlcNAc(b1-4)]Man(a1-6)[Neu5Ac(a2-3)Gal(b1-3)GlcNAc(b1-2)Man(a1-3)]Man(b1-4)GlcNAc(b1-4)GlcNAc
# Procedure, shortened: as §1
# [35] = molecular target: Neu5Ac(a2-3)Gal(b1-3)GlcNAc(b1-3)Gal(b1-3)GlcNAc
# Procedure, shortened: as §1
# [36] = molecular target: Neu5Ac(a2-3)Gal(b1-3)GlcNAc(b1-3)Gal(b1-4)GlcNAc
# Procedure, shortened: as §1
# [37] = molecular target: Neu5Ac(a2-3)Gal(b1-3)GlcNAc(b1-3)GalNAc
# Procedure, shortened: as §1
# [38] = molecular target: Neu5Ac(a2-3)Gal(b1-3)GlcNAc(b1-6)GalNAc
# Procedure, shortened: as §1
binder,measurement,setting,value
B1,glycan array binding signal (z-score),[1],-0.095
same,glycan array binding signal (z-score),[2],-0.092
same,glycan array binding signal (z-score),[3],-0.025
same,glycan array binding signal (z-score),[4],-0.043
same,glycan array binding signal (z-score),[5],0.042
same,glycan array binding signal (z-score),[6],-0.131
same,glycan array binding signal (z-score),[7],-0.028
same,glycan array binding signal (z-score),[8],-0.114
same,glycan array binding signal (z-score),[9],-0.028
same,glycan array binding signal (z-score),[10],-0.113
same,glycan array binding signal (z-score),[11],-0.128
same,glycan array binding signal (z-score),[12],-0.114
same,glycan array binding signal (z-score),[13],0
same,glycan array binding signal (z-score),[14],-0.104
same,glycan array binding signal (z-score),[15],-0.14
same,glycan array binding signal (z-score),[16],-0.025
same,glycan array binding signal (z-score),[17],-0.102
same,glycan array binding signal (z-score),[18],-0.09
same,glycan array binding signal (z-score),[19],0.002
same,glycan array binding signal (z-score),[20],-0.126
same,glycan array binding signal (z-score),[21],-0.088
same,glycan array binding signal (z-score),[22],-0.084
same,glycan array binding signal (z-score),[23],-0.09
same,glycan array binding signal (z-score),[24],-0.062
same,glycan array binding signal (z-score),[25],-0.079
same,glycan array binding signal (z-score),[26],-0.067
same,glycan array binding signal (z-score),[27],-0.083
same,glycan array binding signal (z-score),[28],-0.097
same,glycan array binding signal (z-score),[29],-0.051
same,glycan array binding signal (z-score),[30],-0.078
same,glycan array binding signal (z-score),[31],-0.107
same,glycan array binding signal (z-score),[32],-0.067
same,glycan array binding signal (z-score),[33],0.181
same,glycan array binding signal (z-score),[34],0.068
same,glycan array binding signal (z-score),[35],-0.013
same,glycan array binding signal (z-score),[36],-0.111
same,glycan array binding signal (z-score),[37],-0.094
same,glycan array binding signal (z-score),[38],-0.047

# — the supplement of paper PMC8728848
